In PubChem BioAssay AID1030 (National Center for Advancing Translational Sciences (NCATS), 2008):
Out of some 220,000 compounds screened, about 16,000 (7.3%) were called active. The inconclusive results got no clear call from the source; some entries with a clear call stand among them for comparison. The call rests on the fitted dose curve; in most records, active means well fitted inhibition curve with a large enough effect (not every such curve was filed as active); inconclusive means small, poorly fitted or top-dose-only effect, or another doubt; inactive means no such curve, though single readings can be large or run the other way. Potencies of inconclusive entries are left out as doubtful fits.
Potency means the concentration at half of the fitted maximal effect; tags describe the fitted curve by direction and shape.
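Wherever activity, negative = inhibition is given: plate controls were no enzyme wells and a reference inhibitor.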

Each molecule was assayed against Aldehyde dehydrogenase 1A1 (Homo sapiens) (UniProt P00352) (assay: qHTS Assay for Inhibitors of Aldehyde Dehydrogenase 1 (ALDH1A1)). Details: Purified ALDH1A1, NADH fluorescence, propionaldehyde substrate; series mostly up to 75.3 µM; activity, negative = inhibition: at the top concentration.
Chain of UniProt P00352 (P00352 whole entry, looked up): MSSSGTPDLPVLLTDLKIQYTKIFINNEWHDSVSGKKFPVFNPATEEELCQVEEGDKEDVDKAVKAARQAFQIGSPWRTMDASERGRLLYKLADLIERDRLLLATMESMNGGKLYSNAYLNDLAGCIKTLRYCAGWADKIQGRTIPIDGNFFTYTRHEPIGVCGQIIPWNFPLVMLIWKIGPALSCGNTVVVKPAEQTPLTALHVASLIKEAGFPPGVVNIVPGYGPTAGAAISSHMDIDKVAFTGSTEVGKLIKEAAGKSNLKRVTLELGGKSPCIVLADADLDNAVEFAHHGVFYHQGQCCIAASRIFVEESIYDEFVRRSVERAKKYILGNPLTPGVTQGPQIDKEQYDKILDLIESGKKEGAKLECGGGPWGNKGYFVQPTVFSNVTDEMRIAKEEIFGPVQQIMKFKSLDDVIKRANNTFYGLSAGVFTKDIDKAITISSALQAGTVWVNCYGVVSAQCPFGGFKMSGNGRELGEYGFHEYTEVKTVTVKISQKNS
CN(C)C(=O)COC(=O)/C=C/c1ccccc1[N+](=O)[O-] was tested, and the “activity, negative = inhibition” value was inactive: -7.51%. With COc1cccc(=O)c2c(C)n(CC(=O)c3ccccc3)c(C)c12 the Potency was inconclusive [inhibitor, single point]. CC1=C(/C=C\C(=O)O)C(C)(C)CCC1 was tested, and the activity, negative = inhibition was inactive: -4.29% [at 13.5 µM]. For COc1ccc(-c2c3c([nH]c(=S)c2C#N)CCC3)cc1, the Potency was active: 14.1 µM. COc1ccc(CCNc2oc(COc3ccccc3)nc2C#N)cc1 was tested, and the Potency was inconclusive [inhibitor, single point]. Cc1cccn2c(=O)c(/C=C(\C#N)S(=O)(=O)c3ccccc3)c(N3CCC(C(N)=O)CC3)nc12 was tested, and the Potency was inconclusive [inhibitor, single point]. C=CCNC(=O)C(C(=O)OCC)C1CCCCC1 (stereo unspecified) was tested, and the Potency was inconclusive [inhibitor, single point]. For CCc1ccc(/C=C2\SC(=S)N(CCCC(=O)Nc3ccccn3)C2=O)cc1, the Potency was inconclusive [inhibitor, partial curve]. In the case of O=C(OCC(=O)N1CCN(C(=O)c2ccco2)CC1)c1ccc(S(=O)(=O)N2CCCCC2)cc1, the Potency was inconclusive [inhibitor, single point]. For CCOc1cc(N2CCOCC2)c(OCC)cc1NC(=O)c1ccc(OC(C)C)cc1, the “activity, negative = inhibition” value was inactive: -3.53%. OCCn1c(CSc2nnc(-c3ccco3)n2-c2ccccc2)nc2ccc(Cl)cc21 was tested, and the Potency was active: 12.6 µM. CCOC(=O)CCCCCCCCCCCCC1C=CCC1 (stereo unspecified) was tested, and the Potency was inconclusive [inhibitor, single point]. With COC(=O)c1sccc1NC(=S)N(C)C1CCCCC1 the Potency was active: 0.355 µM. O=CNn1cnc2c(oc3nc(-c4ccccc4)cc(-c4ccco4)c32)c1=O was tested, and the Potency was inconclusive [inhibitor, partial curve]. FC(F)(F)c1cccc(N2CCN(c3nnnn3-c3ccccc3)CC2)c1 was tested, and the Potency was inconclusive [inhibitor, partial curve]. For CCOC(=O)COn1c(=O)c(C)[n+]([O-])c2ccccc21, the Potency was inconclusive [inhibitor, single point]. With COc1cc(/C=C(/C#N)c2nc3ccccc3[nH]2)ccc1OCC(=O)Nc1ccccc1C(C)C the Potency was inconclusive [inhibitor, single point]. CC(=O)N1N=C(c2cccc([N+](=O)[O-])c2)OC1c1cccc(Br)c1 (stereo unspecified) was tested, and the Potency was inconclusive [inhibitor, single point]. In the case of Cn1c(=O)c2cc(S(=O)(=O)NCCC(=O)N3CC=C(c4ccccc4)CC3)ccc2n(C)c1=O, the Potency was inconclusive [inhibitor, single point]. In the case of O=C(CCn1c(SCC(=O)NCc2ccco2)nc2ccccc2c1=O)NCCc1ccccc1, the “activity, negative = inhibition” value was inactive: -9.54%. With C/C(=N\NC(=O)c1ccc(Cl)cc1)c1ccc(N2CCOCC2)cc1 the “activity, negative = inhibition” value was inactive: -47.9%. CCc1nc(NCc2ccco2)c2oc3ccccc3c2n1 was tested, and the Potency was inconclusive [inhibitor, single point]. For O=C(CSc1ccccc1C(=O)O)NCC1CCCCC1, the Potency was inconclusive [inhibitor, single point]. O=C(O)C1OC(Oc2c(-c3ccc(O)c(O)c3)oc3cc(O)cc(O)c3c2=O)C(O)C(O)C1O (stereo unspecified) was tested, and the Potency was inconclusive [inhibitor, single point]. With COc1ccc(-c2cc(C(=O)NCCN3CCOCC3)c3ccccc3n2)cc1 the Potency was inconclusive [inhibitor, partial curve]. In the case of COc1ccc(Oc2ncc3nc(C)c(=O)n(Cc4cccc(OC)c4)c3n2)cc1, the Potency was inconclusive [inhibitor, single point]. For COc1cccc(NC(=S)N2CCc3cc(OC)c(OC)cc3C2COc2ccc3c(C)cc(=O)oc3c2)c1 (stereo unspecified), the Potency was inconclusive [inhibitor, single point]. In the case of COc1cccc(-c2nc(CS(=O)CC(=O)NCc3ccccc3Cl)c(C)o2)c1 (stereo unspecified), the Potency was inconclusive [inhibitor, partial curve]. In the case of Cn1c(=O)c2c(SCc3cccnc3)nc(CC(C)(C)C)nc2n(C)c1=O, the Potency was active: 0.891 µM. In the case of CC(C)Cn1c(O)c(N=NC(=O)c2cccc(S(=O)(=O)N3CCCCC3)c2)c2ccccc21, the Potency was active: 3.55 µM. Cc1onc(-c2c(F)cccc2Cl)c1C(=O)NCc1ccccn1 was tested, and the “activity, negative = inhibition” value was inactive: -10%. For CC1=CS/C(=C(/C#N)C(=O)N2CCCCC2)N1c1ccccc1, the Potency was inconclusive [inhibitor, single point]. In the case of O=C(CSC1=NCCN1)Nc1ccccc1[N+](=O)[O-], the Potency was inconclusive [inhibitor, single point]. For O=C1CNC(=O)/C1=C/c1ccc(O)cc1, the Potency was active: 31.6 µM. For CC1CCCN(c2ccc(C(=O)Nc3cccnc3)cc2[N+](=O)[O-])C1 (stereo unspecified), the Potency was inconclusive [inhibitor, single point]. For O=C(CN1CCC(Cc2ccccc2)CC1)Nc1ccc2c(c1)OCCO2, the Potency was active: 28.2 µM. COc1ccc(C2C(C(=O)/C=C/c3ccco3)=C(O)C(=O)N2CCN2CCOCC2)cc1 (stereo unspecified) was tested, and the Potency was active: 20 µM. In the case of Cc1oncc1C(=S)Nc1ccccc1, the Potency was inconclusive [inhibitor, single point]. CC1CCCCN1C(=O)c1ccc(OC2CCN(S(=O)(=O)N(C)C)CC2)cc1 (stereo unspecified) was tested, and the Potency was inconclusive [inhibitor, single point]. With CC(=O)Nc1cc(-c2nn3c(C)nnc3s2)ccc1C the Potency was inconclusive [inhibitor, single point]. In the case of O=C(/C=C/c1cccc([N+](=O)[O-])c1)c1ccccc1, the “activity, negative = inhibition” value was inactive: -3.75%. With O=C(/C=C/c1cccc2ccccc12)c1ccncc1 the Potency was inconclusive [inhibitor, single point]. In the case of Cc1ccc(S(=O)(=O)/N=C(\c2ccccc2)N(C)S(=O)(=O)c2ccccc2)cc1, the Potency was inconclusive [inhibitor, partial curve]. For COc1ccc2c(C)c(Cc3ccccc3)c(=O)oc2c1OC, the Potency was inconclusive [inhibitor, partial curve]. For CN(C1=C(NC(=O)c2ccccc2)C(=O)c2ccccc2C1=O)C1CCS(=O)(=O)C1 (stereo unspecified), the Potency was inconclusive [inhibitor, single point]. With O=C(COn1nnc2ccc(Cl)cc21)NC12CC3CC(CC(C3)C1)C2 the Potency was inconclusive [inhibitor, partial curve]. In the case of COc1ccccc1NC(=O)CSc1nnc(-c2ccoc2C)n1CCc1ccccc1, the Potency was inconclusive [inhibitor, partial curve, poor fit]. O=C(NC(=S)Nc1ccc(-c2ccc(CO)o2)cc1)c1cccs1 was tested, and the Potency was active: 20 µM. For OCCSc1nncn1/N=C/c1c[nH]c2ccccc12, the Potency was inconclusive [inhibitor, single point]. Cc1ccc(C(=O)N(CN2CCCC2=O)c2ccccc2)cc1C was tested, and the Potency was inconclusive [inhibitor, single point]. For CCOC(=O)c1sc(NC(=O)CSc2nc(C)cc(C)n2)c(C#N)c1C, the “activity, negative = inhibition” value was inactive: -4.68%. For CCN(CC)c1ccc(NC(=O)COC(=O)COc2ccccc2[N+](=O)[O-])cc1, the Potency was inconclusive [inhibitor, partial curve]. CC(=O)Nc1cc2c(cc1Br)OCCO2 was tested, and the “activity, negative = inhibition” value was inactive: 7.37%. With COc1ccc(C2(NC(C)=O)CCN(C(=O)c3cccs3)CC2)cc1 the Potency was inconclusive [inhibitor, single point]. In the case of COc1ccc(CC2(C)OC(c3ccc(C)c([N+](=O)[O-])c3)=NN2C(C)=O)cc1 (stereo unspecified), the Potency was inconclusive [inhibitor, partial curve, poor fit]. With CCOC(=O)c1sc2nc(C)[nH]c(=S)c2c1C the “activity, negative = inhibition” value was inactive: -9.68%. In the case of Nn1c(Cc2ccc(Br)cc2)n[nH]c1=S, the Potency was active: 11.2 µM. With CN1/C(=C/C(=O)C2CC2)C(C)(C)c2ccccc21 the “activity, negative = inhibition” value was inactive: -6.22%. With O=C(NC1CCS(=O)(=O)C1)c1cc(-c2ccccc2)nc2ccccc12 (stereo unspecified) the “activity, negative = inhibition” value was inactive: -10.7%. In the case of S=C(NCc1cccs1)Nc1ccc(Cl)cc1, the Potency was inconclusive [inhibitor, single point]. In the case of Cc1cccc(-n2ccnc2SCC(=O)O)c1C, the “activity, negative = inhibition” value was inactive: -2.55%. With CC(O)CN=c1cc(-c2ccccc2)oc2ccc(Cl)cc12 (stereo unspecified) the Potency was inconclusive [inhibitor, single point]. COc1ccccc1NC(=O)CC(=O)CSc1nnc(-c2ccc(C)cc2)n1-c1ccccc1 was tested, and the Potency was inconclusive [inhibitor, single point]. In the case of Cc1oc(-c2cccs2)nc1CN1CCN(C2CCCC2)C(CCO)C1 (stereo unspecified), the Potency was inconclusive [inhibitor, single point]. With C=C1N(c2ccc(Cl)cc2)C(=O)OC1(C)C the Potency was inconclusive [inhibitor, single point]. For Cc1ccc(-c2csc3nc(CSc4nnc(-c5ccc(Cl)cc5)n4C)[nH]c(=O)c23)cc1, the “activity, negative = inhibition” value was inactive: -9.25%. In the case of CCOC(=O)N1CCN(C(=O)CC(=O)Nc2ccc3nc4n(c(=O)c3c2)CCCCC4)CC1, the Potency was inconclusive [inhibitor, single point]. With CN1CCCc2cc(C=O)ccc21 the Potency was active: 0.199 µM. In the case of Cc1cc(C)c(C)c(S(=O)(=O)NCc2ccc(C(=O)N3CCCC3)cc2)c1C, the Potency was inconclusive [inhibitor, single point]. For COc1ccc2nc3ccccc3nc2c1NC(=O)c1ccccc1Cl, the “activity, negative = inhibition” value was inactive: -13.2%. COc1ccc(OC)c2sc(Cl)nc12 was tested, and the Potency was inconclusive [inhibitor, single point].
